Data as given in a collection of fitness landscapes (doi:10.1016/j.celrep.2020.107928).
The full ranking holds about 81,000 sequences; the median of “one-hybrid fitness for binding NBS DNA” is about -0.1, and the highest 2% start at about 0.36. This is one part of the list.

B1: Caulobacter ParB omega fusion; a variant is named by its letters at X, in order, B8GW30 (parent)
chain: MESVVVGEPGMSEGRRGLGRGLSALLGEVDAAPAQAPGEQLGGSREAPIEILQRNPDQPRRTFREEDLEDLSNSIREKGVLQPILVRPSPDTAGEYQIVAGERAWRAAQRAGLKTVPIMVRELDDLAVLEIGIIENVQRADLNVLEEALSYKVLMEKFERTQENIAQTIGKSXSHVANXMRLLXLPDEVQSYLVSGELTAXHARAIAAAADPVALAKQIIEGGLSVRETEALARKAPNLSAGKSKGGRPPRVKDTDTQALESDLSSVLGLDVSIDHRGSTGTLTITYATLEQLDDLCNRLTRGI

Variants of: B1
Assay: one-hybrid fitness for binding NBS DNA (the Noc-binding site; scaled: cognate 1, non-cognate 0); higher = stronger binding
Details: with NBS DNA site
Summary of the method: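 Caulobacter ParB libraries with four specificity codons randomised were screened by bacterial one-hybrid selection in the E. coli USO strain, using a HIS3 reporter whose site lies 19 bp from the promoter. Selection ran for 48 hours at 37°C on M9 lacking histidine, with 0.1 mM IPTG and 5 mM 3-AT. Plasmids were Illumina-sequenced before and after selection, three replicate libraries were pooled, and variants with under 10 reads were dropped. Fitness is the log change in each variant's read ratio to wild type, rescaled against the cognate and non-cognate sites.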

one-hybrid fitness for binding NBS DNA, ≤ 0.2:
ELPI
CLMI
QNEV
PLND
MVNK
QSYK
NGYS
TPSA
HKVM
YPRT
QCHG
AKMS
GSPF
VLLS
NRKA
PDIR
STKN
QNAL
IDYA
HRPP
QYMC
TYCY
AMTI
FPFL
ITHR
NWRD
IYRG
YSNL
SHLR
YILL
RNWC
PKGA
CLVH
CRYS
HQFL
ISMK
PADG
TLHR
AWLS
KTGT
DDIR
LFYI
PNDE
QAPM
KTKL
QTDL
TWRK
RDWI
SNLQ
PGIG
EHGR
DIDF
RYCL
QQPW
HAKK
LRYS
SPNW
TQSS
NYYG
GYLG
DSLA
AFPY
RPQM
IVTP
RLLN
VNVR
LAHT
ECQL
IRYE
LWDS
CGCR
NPVR
RHAM
NMCG
SACF
TCGG
QFPP
IVFV
SDDG
VMNT
AERM
VYNS
ETDS
LSME
HHVT
NCIG
WSMS
SVRW
LPNR
PMRN
RFYC
YFTG
IYAV
AMDV
VHTA
QDMY
PNVW
HGPV
VTFI
KPWS
RHYL
LSHW
PSQN
CGIR
CGQR
SFLC
EGHS
LSVQ
NVRN
GSNV
TWQR
IFPR
HRIR
NSRE
GGTV
ATQC
GNNC
TMIN
FKSC
RDNC
GMCW
DLVR
DINR
MCTK
TRNI
PLAS
VPYG
RTSC
LVTW
PPTY
EDMG
PILS
LPQL
GNAR
YRNI
QILW
PGFF
ADRP
MVKY
CAVS
MYLG
RSLL
IKDN
NVKW
CKCG
TRKE
AIFL
DMWV
FAAR
KQSN
YRRD
EIVT
TQTG
SKDV
HAGV
YNER
HCTL
PQKT
THYS
WTHL
PPIA
PAIG
IPSM
NYAS
LWGM
RYLH
HVTN
HDGT
DLTC
PFLT
YPVG
RQKW
TPNG
PGVT
QCYF
YLPS
QRFW
QAQG
SSGA
CVRS
EVAG
AQCT
DQGR
HDWG
QKWF
DAAM
YIWS
ANAL
REHE
TDKY
QCTD
WAGR
QHVI
ANAC
KLSY
VNAF
GSPT
LDHK
HYLV
HENL
GGGN
RWLK
KMYT
MAIH
VLIF
CNPS
QNAH
CKRA
EVAR
RQQK
AGKR
NSRG
RCLM
LMTL
DDTD
RDML
SALR
AGGV
SQTD
AAYN
AWPF
PAEC
GTAR
YQRV
RFGS
WHEL
PNKC
HNKE
LFTT
KVYT
FDHR
KKRN
PDSI
HSVE
CDQK
SRFE
VPKY
LCLL
RIGK
FPHC
RNRF
WASQ
EGNR
VCVT
QTHP
HYTP
TMEN
ADLD
PKQL
TESY
DPWT
RKSQ
VYTP
TQKY
GQMT
PHVS
MDWV
HRCS
ADVE
KWAT
SCMC
FYTS
PFNV
HYPW
AQGT
KMCS
KQMN
LFGV
RHMK
PANR
KRPP
WVLG
SEMV
FCRC
VSTC
MLVC
FWVR
HADS
WAAM
QEAK
YPLD
LWTW
VQSG
TSRQ
LKFC
PCSG
FMLY
KLDW
ANCL
RVEP
PQEY
YCWI
TEHK
EDRC
FYTV
HMVS

one-hybrid fitness for binding NBS DNA, 0.853:
QIKR

one-hybrid fitness for binding NBS DNA, 0.484:
RTTS

one-hybrid fitness for binding NBS DNA, 0.684:
QRAS

one-hybrid fitness for binding NBS DNA, 0.794:
QTTR

one-hybrid fitness for binding NBS DNA, 0.375:
RRKC

one-hybrid fitness for binding NBS DNA, 0.23:
RRLN

one-hybrid fitness for binding NBS DNA, 0.289:
QRTE

one-hybrid fitness for binding NBS DNA, 0.209:
AIKR

one-hybrid fitness for binding NBS DNA, 0.377:
QYGS

one-hybrid fitness for binding NBS DNA, 0.238:
RKMC
